# PubChem BioAssay AID624417 (National Center for Advancing Translational Sciences (NCATS), 2012)
# Out of some 410,000 compounds screened, about 6,400 (1.6%) were called active. The inconclusive results got no clear call from the source; some entries with a clear call stand among them for comparison. Calls come from the whole dose curve; as a rule, active = well fitted inhibition curve with a large enough effect; inconclusive = small, poorly fitted or top-dose-only effect; inactive = no such curve, though single readings can be large or run the other way. Potencies of inconclusive entries are left out as doubtful fits.
# Target: Glucagon-like peptide 1 receptor (Homo sapiens) (UniProt P43220)
# Assay: qHTS of GLP-1 Receptor Inverse Agonists (Inhibition Mode); note: nearly all actives have a fitted effect of over 55% in size
# Details: HEK293 GLP-1R CRE-luciferase, luminescence, 24 h, GLP-1R form is constitutively active; activity change, negative = inhibition: at 38.3 µM (top of the series) unless noted
# In short: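 Inverse agonism was detected as reduced cAMP-driven luciferase luminescence after 24 h compound treatment. The cells were HEK293 clones expressing constitutively active human GLP-1R with the reporter. Reporter-only and GPR119 cell lines served as counterscreen controls.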
# % is set by controls: 0 for no effect and ±100 for the full control effect; potency is the fitted concentration of half-maximal effect; tags give direction and shape of the fitted curve.
# Chain of UniProt P43220 (P43220 whole entry, looked up): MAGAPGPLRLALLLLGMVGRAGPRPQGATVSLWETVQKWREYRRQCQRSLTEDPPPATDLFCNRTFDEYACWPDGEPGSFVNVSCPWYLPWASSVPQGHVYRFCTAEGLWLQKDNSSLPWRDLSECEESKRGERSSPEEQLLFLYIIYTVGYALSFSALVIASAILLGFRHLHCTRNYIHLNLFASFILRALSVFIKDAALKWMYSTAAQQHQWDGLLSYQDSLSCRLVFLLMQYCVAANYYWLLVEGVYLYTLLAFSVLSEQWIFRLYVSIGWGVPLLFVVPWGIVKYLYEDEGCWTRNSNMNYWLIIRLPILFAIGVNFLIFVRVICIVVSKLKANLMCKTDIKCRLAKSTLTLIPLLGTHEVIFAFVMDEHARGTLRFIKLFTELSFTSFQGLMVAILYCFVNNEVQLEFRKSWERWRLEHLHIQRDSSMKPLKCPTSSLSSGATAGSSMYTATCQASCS
SMILES,Potency,"activity change, negative = inhibition"
O=C(C1CC(c2ccccc2O)=NO1)N1CCc2ccccc2C1 (stereo unspecified),"inconclusive [inhibitor, single point]",
CCc1ccc(NC(=O)CN(c2ccc(Cl)cc2)S(=O)(=O)c2ccsc2C(=O)OC)cc1,active: 3.16 µM,
CCOc1ccc(NC(=S)N(CCN2CCOCC2)Cc2ccc3c(c2)CCCN3CC)cc1,"inconclusive [inhibitor, partial curve, poor fit]",
O=C(C1CCCN(S(=O)(=O)c2cccc3nsnc23)C1)N1CCN(c2ccccc2)CC1 (stereo unspecified),inactive,
O=C1NCN(c2ccccc2)C12CCN(CCCC(c1ccc(F)cc1)c1ccc(F)cc1)CC2,"inconclusive [inhibitor, partial curve, poor fit]",
COc1ccc(OC(C)C(=O)Nc2ccc([N+](=O)[O-])cc2)cc1 (stereo unspecified),"inconclusive [inhibitor, single point]",
COc1ccc(OC)c(CNC(=O)c2ccc3c(c2)c(C)c(C)n3Cc2ccc(Cl)cc2)c1,"inconclusive [inhibitor, full curve]",
Cc1ccc(C)c(CN2C(=O)C(O)(c3c(C)[nH]c4ccccc34)c3ccccc32)c1 (stereo unspecified),"inconclusive [inhibitor, single point]",
CN(C)CCCN(C(=O)c1ccc(C(=O)c2ccccc2)cc1)c1nc2cc3c(cc2s1)OCCO3,"inconclusive [inhibitor, full curve, poor fit]",
COC(=O)c1scc(-c2ccc(C)cc2)c1S(=O)(=O)N1CCN(c2ccccc2)CC1,"inconclusive [inhibitor, single point]",
CSc1ccc(-c2nc(CN(C)C3CCOC3)c(C)o2)cc1 (stereo unspecified),"inconclusive [inhibitor, single point]",
O=C(CCC1CCCC1)N1CCN(S(=O)(=O)Cc2ccccc2)CC1,"inconclusive [inhibitor, partial curve, poor fit]",
Cc1cc(C)c(OCCCNCc2ccccc2)c(Br)c1,"inconclusive [inhibitor, partial curve, poor fit]",
Cn1cc(S(=O)(=O)N2CCOCC2)cc1C(=O)O,inactive,
Cc1ccc(CN(C(=O)Cn2nnc3ccccc32)C(C(=O)NCc2ccco2)c2cccs2)cc1 (stereo unspecified),"inconclusive [inhibitor, partial curve, poor fit]",
COc1cc(OC)cc(N2C(=O)N(Cc3ccc(C(C)(C)C)cc3)c3ccccc3S2(=O)=O)c1,inactive,
Cc1ccc(C(=O)Oc2ccc([N+](=O)[O-])cc2)cc1S(=O)(=O)N1CCCCCC1,"inconclusive [inhibitor, partial curve, poor fit]",
O=C(O)CSc1nc2sc3c(c2c(=O)n1-c1ccccc1)CCC3,inactive,
Cc1nn(-c2ccc(N3CCCCC3)nn2)c(C)c1CCC(=O)Nc1ccc(F)cc1F,"inconclusive [inhibitor, single point]",
CCc1ccccc1NC1c2ccccc2C(=O)N1Cc1ccco1 (stereo unspecified),"inconclusive [inhibitor, single point]",
Cc1ccc(CSc2ncnc3c2cnn3-c2ccc(C)cc2)cc1,inactive,

SMILES,Potency,"activity change, negative = inhibition"
COc1cc([N+](=O)[O-])ccc1NC(=O)CC1SC(=Nc2ccc(F)cc2)N(CCC2=CCCCC2)C1=O (stereo unspecified),"inconclusive [inhibitor, full curve, poor fit]",
CCOc1ccc(NS(=O)(=O)c2ccc(C(=O)N(C)C)s2)cc1,inactive,
CCN(CC)c1ccc(/C=N/NC(=O)CNC(=O)C2COc3ccccc3O2)c(O)c1 (stereo unspecified),"inconclusive [inhibitor, single point]",
O=C(COC(=O)c1cn(-c2ccccc2)nc1-c1cccs1)NC1CC1,"inconclusive [inhibitor, single point]",
COCc1ccc(C(=O)N2CCCC(CCC(=O)NCc3ccccc3F)C2)o1 (stereo unspecified),"inconclusive [inhibitor, full curve, poor fit]",
CCn1c(=O)c(C(=O)CN2CCN(Cc3ccc4c(c3)OCO4)CC2)c(N)n(Cc2ccccc2)c1=O,"inconclusive [inhibitor, single point]",
O=C(CCSCc1cccc(Cl)c1)N1CCN(c2ccc(Cl)cc2)CC1,"inconclusive [inhibitor, single point]",
Cc1ccc(NC(=O)C2CCN(S(=O)(=O)c3ccc4c(c3)NC(=O)C(C)S4)CC2)c(Cl)c1 (stereo unspecified),"inconclusive [inhibitor, single point]",
O=C(c1cccs1)N1CCN(c2nnc(-c3ccccc3)c3ccccc23)CC1,"inconclusive [inhibitor, single point]",
O=S1(=O)CC/C(=N\Nc2ccccc2)c2ccsc21,"inconclusive [inhibitor, partial curve]",
Cc1cc(C)cc(NC(=S)N2CCC(c3nc4ccccc4s3)CC2)c1,"inconclusive [inhibitor, single point]",
Cc1ccccc1C(=O)N1CC(=O)Nc2ccc(Cl)cc2C1c1ccccc1 (stereo unspecified),"inconclusive [inhibitor, single point]",
CCCCCc1cc(=O)oc2c(C(CCN3CCCC3)c3cc(OC)c(OC)c(OC)c3)c(OC)cc(OC)c12 (stereo unspecified),"inconclusive [inhibitor, partial curve, poor fit]",
CCOC(=O)C1=C(C)N=c2s/c(=C\c3ccc(C(=O)O)cc3)c(=O)n2C1c1ccc(OC)cc1OC (stereo unspecified),inactive,
CN(Cc1ccccc1)C(=O)c1cccc(NC(=O)C2CCCN(C(=O)OC(C)(C)C)C2)c1 (stereo unspecified),"inconclusive [inhibitor, partial curve, poor fit]",
CC(C)(C)NS(=O)(=O)c1ccc(Oc2ncc(C(F)(F)F)cc2Cl)cc1,"inconclusive [inhibitor, partial curve, poor fit]",
CCOC(=O)c1cnc2c(C)cccc2c1NCc1ccco1,"inconclusive [inhibitor, single point]",
Cc1c(NC(=S)N/N=C/C=C/c2ccccc2)c(=O)n(-c2ccccc2)n1C,"inconclusive [inhibitor, single point]",
COc1ccc(S(=O)(=O)Nc2ccc3oc4c(c3c2)CCCC4)cc1,"inconclusive [inhibitor, single point]",
CCOC(=O)c1c(NC(=O)CN2C(=O)NC(C)(c3ccc(OC(F)F)cc3)C2=O)sc(C)c1C (stereo unspecified),"inconclusive [inhibitor, single point]",
Cc1cc(Cl)ccc1OCC(=O)Nc1ccccc1N1CCOCC1,"inconclusive [inhibitor, single point]",

SMILES,Potency,"activity change, negative = inhibition"
O=C(Nc1ccc2c(c1)OCO2)c1nn(-c2ccccc2)c(=O)c2ccccc12,"inconclusive [inhibitor, partial curve, poor fit]",
CC1(C)N=C(SCc2ccccc2Cl)c2ccccc2N1,"inconclusive [inhibitor, partial curve, poor fit]",
C/C=C/C(=O)N1c2ccc(C)cc2C(C)=CC1(C)C,"inconclusive [inhibitor, single point]",
CCn1c(SCC(=O)c2ccccc2)nnc1-c1cc2cc(Br)ccc2o1,"inconclusive [inhibitor, full curve, poor fit]",
Cc1sc2ncn(CC(=O)Nc3ccc(C(C)C)cc3)c(=O)c2c1S(=O)(=O)N1CCN(c2ncccn2)CC1,inactive,
CC(C)CC(N)c1csc(Nc2ccc(C(=O)c3ccccc3)cc2)n1 (stereo unspecified),"inconclusive [inhibitor, partial curve, poor fit]",
O=C(O)CCCCCN=Cc1c(O)c2ccccc2oc1=O,inactive,
CCN(CC)c1ccc(NC(=O)Nc2ccccc2)cc1,,inconclusive: -81.6% [inhibitor]
O=C(NCc1c(Cl)cccc1Cl)c1[nH]c(C(F)(F)F)nc1-c1ccccc1,"inconclusive [inhibitor, single point]",
COc1ccc(/C=C2\SC(N3CCc4ccccc4C3)=NC2=O)cc1,"inconclusive [inhibitor, single point]",
O=C(/C=C/c1cccnc1)/C=C/c1cccnc1,"inconclusive [inhibitor, single point]",
COc1ccc(NC(=S)/N=C(\N)Nc2nc(C)c3ccc(C)cc3n2)cc1,"inconclusive [inhibitor, single point]",
COc1cccc(-c2nc(C(=O)NCC3CCCO3)cc3c2[nH]c2ccccc23)c1 (stereo unspecified),"inconclusive [inhibitor, partial curve, poor fit]",
COc1ccc(S(=O)(=O)N2CCN(Cc3ccc(Cl)cc3)CC2)cc1,"inconclusive [inhibitor, single point]",
O=C(CCN1C(=O)/C(=C/c2ccc(F)cc2)SC1=S)N[C@@H](CO)Cc1ccccc1,"inconclusive [inhibitor, partial curve, poor fit]",
Cc1c(C(=O)N2CCN(c3ccccc3)CC2)oc2c(F)cccc12,inactive,
Cn1c(SCc2ccccc2Cl)nc2ccccc21,"inconclusive [inhibitor, single point]",
CN(c1ccccc1)S(=O)(=O)c1cccc(NC(=O)CCN2C(=O)C3CCCCC3C2=O)c1 (stereo unspecified),"inconclusive [inhibitor, single point]",
O=C(COc1ccc(F)cc1Cl)Nc1cccc(S(=O)(=O)N2CCCC2)c1,"inconclusive [inhibitor, single point]",
